In the supplement of paper PMC4604168 (melanoma cell lines) one finds cell count data, which are given here for five molecules.

The list shows a part of the results. Repeats are few or missing, and single values can be far off.

Among the test systems are WM115; WM1716; WM1745; WM3526; WM3619; WM451Lu.
Holding throughout (test): cell count relative to DMSO control; melanoma cells; higher = more viable cells
What all share (conditions): library dose: low library concentration; 72 h
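Also: cell number obtained by counting DAPI-stained nuclei in high-throughput microscope images with image analysis software, screen run in 1,536-well plates.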

Regarding `Cc1nc(Nc2ncc(C(=O)Nc3c(C)cccc3Cl)s2)cc(N2CCN(CCO)CC2)n1` [dasatanib] + Cc1cc([N+](=O)[O-])ccc1NS(=O)(=O)c1cc(Cl)ccc1Cl [FH535] (first compound 0.004 µM, partner dose 1 µM), the cell count in the assay with WM115 amounted to 68.7%; in the assay on WM1716 it was 61.5%; in the assay with WM1745, 67.4%; in the assay with WM3526 it was 93.1%; in the assay on WM3619, 91.6%; in the assay with WM451Lu, 86%.
Consider `C[C@]1(c2nc3c(C(N)=O)cccc3[nH]2)CCCN1` [Veliparib] + COc1cc2c(Oc3ccc4[nH]c(C)cc4c3F)ncnc2cc1OCCCN1CCCC1 [cediranib] (first compound 1.4 µM, partner dose 0.4 µM), for which the cell count in the assay on WM115 stood at 88.6%; in the assay on WM1716 it was 86.4%; with WM1745, 91%; in the assay on WM3526, 97.6%; in the assay on WM3619, 107%; with WM451Lu, 104%.
Take `CN(C)S(=O)(=O)c1ccc2c(c1)/C(=C/c1cc3c([nH]1)CCCC3)C(=O)N2` + O=C1NC(=O)/C(=C/c2ccc(-c3ccc(F)cc3O)o2)S1 [AS252424] (first compound 0.4 µM, partner dose 1 µM): the cell count in the assay on WM115 came out at 76.7%; in the assay with WM1716 it was 109%; with WM1745 it was 82.4%; with WM3526, 102%; with WM3619 it was 92%; in the assay on WM451Lu, 101%.
As for `CO[C@@H]1[C@H](N(C)C(=O)c2ccccc2)C[C@H]2O[C@]1(C)n1c3ccccc3c3c4c(c5c6ccccc6n2c5c31)C(=O)NC4` [Midostaurin] + O=c1cc(-c2cccc3c2Sc2ccccc2S3)oc(N2CCOCC2)c1 [KU55933] (first compound 0.08 µM, partner dose 1 µM), the cell count in the assay on WM115 turned out to be 77.3%; with WM1716, 64.3%; in the assay on WM1745, 62.2%; in the assay on WM3526, 97.4%; in the assay with WM3619, 68.5%; with WM451Lu, 96.3%.
For `CN(C)S(=O)(=O)c1ccc2c(c1)/C(=C/c1cc3c([nH]1)CCCC3)C(=O)N2` + CCc1ccc(CCOc2ccc(CC3SC(=O)NC3=O)cc2)nc1 [pioglitazone] (first compound 0.4 µM, partner dose 2 µM), the cell count in the assay on WM115 was 74%; in the assay on WM1716, 108%; in the assay on WM1745 it was 80.9%; in the assay with WM3526, 99.8%; in the assay on WM3619, 115%; in the assay on WM451Lu it was 128%.
